# Laboratory results: PubChem BioAssay (NCATS)
# The list shows a part of the results. These are further read-outs of the screen, such as a control signal, another cell line or another target. No call is given for them. Most of these compounds were active or inconclusive in the main read-out, so they are no random draw. Words in brackets tell the shape of the fitted curve; partial curves, single points and poor fits give uncertain potencies. Bridge positions count the residues as written; N and C are the ends. Square brackets hold non-standard residues; d marks the D form. Peptide text beside a SMILES is read from it. * marks the point of attachment. Octanoyl(6-Me) = CCC(C)CCCCC(=O)*; Dab = NCC[CH](N)C(=O)O
# Experiment: qHTS Assay for Lipid Storage Modulators (AID 1519)
# Conditions: Drosophila S3 cells, BODIPY lipid droplet/cell ratio, laser cytometry, cells loaded with oleic acid
# Outline: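 Cells seeded at 5,000 per well were treated with compounds over a concentration series and loaded with oleic acid (400 uM, as added). Lipid droplet fluorescence (488 nm excitation, 500-530 nm channel) was read by laser-scanning cytometry and normalized to 20 uM Triacsin C.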
# [1] = measured here: cell count channel max response
# [2] = measured here: cell number channel AC50
# [3] = measured here: lipid (BODIPY) channel AC50
# [4] = measured here: lipid channel max response
# Tags tell the direction and shape of the fitted curve.
smiles,measurement,setting,value
CCC(C)CCCCC(=O)NC(CCN)C(=O)NC(C(=O)NC(CCN)C(=O)NC1CCNC(=O)C(C(C)O)NC(=O)C(CCN)NC(=O)C(CCN)NC(=O)C(CC(C)C)NC(=O)C(Cc2ccccc2)NC(=O)C(CCN)NC1=O)C(C)O (centres undefined) ({Octanoyl(6-Me)}-[Dab]T[Dab][Dab][Dab]FL[Dab][Dab]T; lactam 4-C; configuration not given here),max response,[1],32.7%
same,AC50,[2],"11.2 µM [rising, partial curve, poor fit]"
same,AC50,[3],"25.1 µM [rising, partial curve, poor fit]"
same,max response,[4],54.3%
N#Cc1cccc(NC(=O)N2CCCC3(CCN(C(=O)c4cccc(F)c4)CC3)C2)c1,max response,[1],32.7%
same,AC50,[2],"0.141 µM [rising, full curve, poor fit]"
same,AC50,[3],"0.158 µM [rising, full curve, poor fit]"
same,max response,[4],43.9%
CC1=C(C(=O)O)N2C(=O)[C@@H](NC(=O)C(N)C3=CCC=CC3)[C@H]2SC1 (some centres undefined),max response,[1],-23.3%
same,AC50,[2],"0.158 µM [falling, full curve, poor fit]"
same,AC50,[3],"0.178 µM [falling, full curve, poor fit]"
same,max response,[4],-23.5%
Cc1noc(C)c1-c1nc(Nc2ccccc2)c2ccccc2n1,max response,[1],41.1%
same,AC50,[2],"0.631 µM [rising, full curve]"
same,AC50,[3],"0.501 µM [rising, full curve]"
same,max response,[4],49.6%
O=c1c(O)c(-c2ccc(O)c(O)c2)oc2c(OC[C@@H]3O[C@@H](O)[C@@H](O)[C@H](O)[C@H]3O)c(O)cc(O)c12,max response,[1],63.1%
same,AC50,[2],"31.6 µM [rising, partial curve, poor fit]"
same,AC50,[3],"31.6 µM [rising, partial curve, poor fit]"
same,max response,[4],84.1%
O=c1c(-c2ccc(Cl)cc2)nc2cnc(N3CCOCC3)nc2n1Cc1ccc(F)cc1,max response,[1],27.4%
same,AC50,[2],"1.41 µM [rising, full curve, poor fit]"
same,AC50,[3],"1 µM [rising, full curve]"
same,max response,[4],36%
O=C(c1cnccn1)N1CCC2(CCCN(Cc3ccncc3)C2)CC1,max response,[1],32.5%
same,AC50,[2],"0.00562 µM [rising, full curve, poor fit]"
same,AC50,[3],"0.01 µM [rising, full curve, poor fit]"
same,max response,[4],36.7%
COc1cccc(Cn2c(=O)c(-c3ccc(Cl)cc3)nc3cnc(N4CCOCC4)nc32)c1,max response,[1],31.7%
same,AC50,[2],"1.41 µM [rising, full curve, poor fit]"
same,AC50,[3],"0.891 µM [rising, full curve]"
same,max response,[4],41.4%
CN1Cc2c(C(=O)OC(C)(C)C)ncn2-c2ccsc2C1=O,max response,[1],67.3%
same,AC50,[2],"31.6 µM [rising, partial curve, poor fit]"
same,AC50,[3],"31.6 µM [rising, partial curve]"
same,max response,[4],88%
Cn1cc(-c2nc3cnc(N4CCNCC4)nc3n(-c3ccccc3)c2=O)c2ccccc21,max response,[1],32.5%
same,AC50,[2],"14.1 µM [rising, partial curve]"
same,AC50,[3],"14.1 µM [rising, partial curve]"
same,max response,[4],41%
O=c1c(-c2cccc(F)c2)nc2cncnc2n1C1CC1,max response,[1],29.2%
same,AC50,[2],"3.55 µM [rising, partial curve, poor fit]"
same,AC50,[3],"2 µM [rising, partial curve, poor fit]"
same,max response,[4],43.4%
COc1ccccc1CCn1c(=O)c(-c2ccc(Cl)cc2)nc2cncnc21,max response,[1],23.1%
same,AC50,[2],"1.58 µM [rising, full curve]"
same,AC50,[3],"1.58 µM [rising, full curve, poor fit]"
same,max response,[4],33.2%
O=S(=O)(c1ccccc1)N1CCC2(CCN(Cc3ccncc3)CC2)CC1,max response,[1],17%
same,AC50,[2],"3.16 µM [rising, partial curve]"
same,AC50,[3],"1.78 µM [rising, full curve, poor fit]"
same,max response,[4],25.4%
c1cn(-c2ncnc3ccc(-c4ccoc4)cc23)cn1,max response,[1],7.62%
same,AC50,[2],"1.12 µM [rising, full curve, poor fit]"
same,AC50,[3],"1.12 µM [rising, full curve, poor fit]"
same,max response,[4],10.6%
COc1ncc2nc(-c3ccc(Cl)cc3)c(=O)n(CCc3ccccc3)c2n1,max response,[1],16.6%
same,AC50,[2],"0.0708 µM [rising, full curve]"
same,AC50,[3],"0.0224 µM [rising, full curve, poor fit]"
same,max response,[4],27.1%
Cc1noc(C)c1-c1nccc(NCc2ccccc2)n1,max response,[1],42.5%
same,AC50,[2],"5.01 µM [rising, full curve, poor fit]"
same,AC50,[3],"3.55 µM [rising, full curve, poor fit]"
same,max response,[4],47.8%
